Target: TNF-alpha
Assay: cell-based or functional assay

Chain of TNF-alpha (P01375 77-233): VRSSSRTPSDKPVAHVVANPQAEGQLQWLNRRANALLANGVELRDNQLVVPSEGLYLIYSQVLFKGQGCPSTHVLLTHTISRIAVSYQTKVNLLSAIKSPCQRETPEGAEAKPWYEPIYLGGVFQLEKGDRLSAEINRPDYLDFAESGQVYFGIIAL

IC50 (ng/ml), WEHI assay as in Example 3: 6.6 ng/mL
B1: TNFR2-h(2)Fc (Fc fusion)
chain: LPAQVAFTPYAPEPGSTCRLREYYDQTAQMCCSKCSPGQHAKVFCTKTSDTVCDSCEDSTYTQLWNWVPECLSCGSRCSSDQVETQACTREQNRICTCRPGWYCALSKQEGCRLCAPLRKCRPGFGVARPGTETSDVVCKPCAPGTFSNTTSSTDICRPHQICNVVAIPGNASMDAVCTSTSPTRSMAPGAVHLPQPVSTRSQHTQPTPEPSTAPSTSFLLPMGPSPPAEGSTGDTG[… human IgG1 Fc and a few adjoining residues …]
